Reference: PubChem BioAssay AID1963576 (National Center for Advancing Translational Sciences (NCATS), 2024)
The campaign covered roughly 46,000 compounds. About 60 (0.1%) were called active. About 3% were inconclusive and are not listed. The call rests on the fitted dose curve; in most records, active means well fitted inhibition curve with a large enough effect; inconclusive means small, poorly fitted or top-dose-only effect; inactive means no such curve, though single readings can be large or run the other way. Some of the results follow.

assay: Primary qHTS assay for Inhibitors of ovarian cancer metastasis using an organotypic tumor microenvironment (TME) model.; further: nearly all actives have a fitted effect of over 65% in size;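 on activity change, negative = inhibition: plate controls were DMSO wells for no effect and tomatine positive control wells for full effect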; details: SKOV3ip1-GFP adhesion/invasion on 3D omental model, fluorescence; series mostly up to 45.8 µM; activity change, negative = inhibition: at the top concentration
In short: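 A 3D layer of primary human omental fibroblasts, mesothelial cells, fibronectin and collagen I, grown 48 hr, received SKOV3ip1-GFP cells in serum-free medium plus compounds at 0.36-46 umol/L. After 2 hr RT and 16 hr 37 C, fixed adherent GFP cells were counted; normalized to DMSO and tomatine.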

| SMILES | activity change, negative = inhibition | outcome |
| --- | --- | --- |
| Cc1ccc(CSc2nc3ccc(NC(=O)COc4ccc(F)cc4)cc3s2)cc1 | inactive: 4.14% |  |
| CCn1nc(C)c(CCN(C)C(=O)Nc2cc(C)cc(C)c2)c1C | inactive: 6.91% |  |
| Cc1cc(C)nc(-n2nc(C)c3c2NC(=O)CC3c2cc(F)ccc2F)n1 (stereo unspecified) | inactive: 6.35% |  |
| CCn1ccc2c(OCC(=O)NCc3ccc(C)cc3)cccc2c1=O | inactive: 3.91% |  |
| COc1ccccc1NC(=O)Cn1c(=O)n(Cc2ccccc2)c(=O)c2c3c(sc21)CN(C(C)=O)CC3 | inactive: 8.83% |  |
| COc1ccc(-c2cc(C(C)=O)c(C)n2CCC(=O)Nc2ccc(C(F)(F)F)cc2)cc1 |  | inactive |
| Nc1nonc1C(=O)NCCNCc1ccc(Cl)c(Cl)c1 |  | inactive |
| Cc1ccc(NC(=O)c2cc3c([nH]c2=O)CC(C)(C)CC3=O)c(C)c1 | inactive: 8.88% |  |
| COc1ccc(CNC(=O)CSc2n[nH]c(-c3ccc(OC)cc3)n2)cc1 | inactive: -1.33% |  |
| CC(C)Sc1ncc(Cl)c(C(=O)Nc2ccc(S(=O)(=O)Nc3ncccn3)cc2)n1 | inactive: -14.6% |  |
| Cn1c(=O)cc(SCC(=O)N2CCN(c3ccccc3F)CC2)c2cc(Cl)ccc21 | inactive: -18.2% |  |
| Cc1ccccc1-c1nc(CS(=O)(=O)CC(=O)Nc2cc(Cl)cc(Cl)c2)c(C)o1 |  | inactive |
| CC(C)c1ccc2c(c1)-c1ccccc1S(=O)(=O)N2CC(=O)N1CCCCC1 | inactive: -6.21% |  |
| O=C(CSc1ncc(-c2ccccc2)[nH]1)Nc1cccc(C(F)(F)F)c1 | inactive: -17.3% |  |
| Cc1cc(Cl)ccc1OCC(=O)Nc1c(C(=O)c2ccccc2)oc2ccccc12 | inactive: 5.93% |  |
| Cc1ccc(-n2c(SCC(=O)NCc3ccccc3)nc3c([nH]c4ccccc43)c2=O)cc1 | inactive: -8.84% |  |
| COc1cc(CN(C(=O)c2cccc(C)c2)c2ccccn2)cc(OC)c1OC | inactive: -9.03% |  |
| COC(=O)c1cc(NC(=O)c2sc3ncn(Cc4cccc(F)c4)c(=O)c3c2C)cc(C(=O)OC)c1 | inactive: 8.4% |  |
| CCOc1ccc(C(=O)NCCn2cc(SCC(=O)Nc3ccccc3)c3ccccc32)cc1 |  | inactive |
| Cc1ccccc1CCNC(=O)C1CCN(c2nc3ccccc3nc2C(F)(F)F)CC1 | inactive: 4.92% |  |
| O=C(NCc1ccccc1Cl)c1cc(=O)[nH]c2ccc(S(=O)(=O)N3CCCCC3)cc12 |  | inactive |
| CCC1CCCCN1C(=O)c1nn(-c2ccc(OC)cc2)c(=O)c2c1c1ccccc1n2C (stereo unspecified) |  | inactive |
| COc1ccccc1NC(=O)CCS(=O)(=O)c1cc2c3c(c1)CCN3C(=O)CC2 |  | inactive |
| O=C(NCC1CCN(Cc2cccc(Cl)c2)CC1)c1cc2ccc3cccnc3c2[nH]1 | inactive: -1.21% |  |

| SMILES | activity change, negative = inhibition | outcome |
| --- | --- | --- |
| COc1ccccc1Nc1nc(-c2ccccc2Cl)c2cc(Br)ccc2n1 |  | inactive |
| Cc1ccc(C)c(N2CCN(C(=O)CCn3c(=O)c4cccn4c4cccnc43)CC2)c1 | inactive: -6.59% |  |
| CC1=C(C(=O)Nc2ccc(Cl)cc2)C(C(C)C)n2nc(SCc3ccc(Cl)cc3)nc2N1 (stereo unspecified) |  | inactive |
| COc1ccccc1CNC(=O)Cn1c(=O)oc2cc(S(=O)(=O)NCc3ccccc3)ccc21 | inactive: -7.84% |  |
| CCN(Cc1ccccc1)C(=O)CN1C(=O)COc2ccc(S(=O)(=O)N(CC)CC)cc21 | inactive: 36.9% |  |
| Cc1cc(C)c2c(CC(=O)Nc3ccc(S(=O)(=O)Nc4ncccn4)cc3)coc2c1 | inactive: 16.4% |  |
| O=C(Cn1nc(C(F)(F)F)c2c1CCC2)Nc1ccc(Cl)cc1 |  | inactive |
| COc1ccc(OC)c(CCNC(=O)C2=C(C)C(=O)OC23CCC(C)CC3)c1 (stereo unspecified) |  | inactive |
| COc1ccc(NC(=O)CN(C)S(=O)(=O)c2cnc[nH]2)cc1Cl | inactive: 18.4% |  |
| Cc1ccc(-c2[nH]c(-c3ccccc3)nc2SCC(=O)NCC2CCCO2)cc1 (stereo unspecified) | inactive: -12.9% |  |
| Cn1c2ccccc2c2c3c(c4c5ccccc5n(CCC#N)c4c21)CNC3=O | inactive: 7.46% |  |
| CCc1cccc(C)c1NC(=O)Cn1ccn(Cc2ccc(Cl)cc2)c(=O)c1=O | inactive: -2.34% |  |
| COc1ccc(-c2noc(COc3ccc(Br)cc3C)n2)cc1OC | inactive: -4.74% |  |
| c1ccc(-c2nnc(CN3CCN(c4ccccc4)CC3)o2)cc1 |  | inactive |
| O=C(O)c1ccc(NC(=O)c2cn(-c3ccccc3)nc2-c2ccc(Br)cc2)cc1 | inactive: -3.36% |  |
| Cc1ccc(OCC(=O)Nc2cccc(C(=O)OCc3cc(=O)n4nc(C)sc4n3)c2)cc1 | inactive: -1.63% |  |
| CCC(O)c1cc2c(cc1NC(=O)c1ccccc1F)OCCO2 (stereo unspecified) | inactive: -5.23% |  |
| O=C(CC1N=C2c3ccccc3N=C(SCc3cccc(F)c3)N2C1=O)NCc1ccc2c(c1)OCO2 (stereo unspecified) | inactive: -12.7% |  |
| Cc1ccc2c(c1C)NC(=O)CC2c1ccc(Cl)cc1Cl (stereo unspecified) | inactive: 4.95% |  |
| Cc1ccc2nc(Cl)c3cc(C(=O)NC4CCC(C)CC4)sc3c2c1 (stereo unspecified) | inactive: 0.265% |  |
| Cc1ccc(-c2cc(C(=O)Oc3ccccc3Cl)no2)cc1C | inactive: 8.69% |  |
| CCc1ccc(C(=O)Nc2cc(CN3CCN(C)CC3)cc(C(F)(F)F)c2)cc1C#Cc1cnc2ccnn2c1 | inactive: 1.68% |  |
| COc1cccc(CNC(=O)C(=O)Nc2ccc3nc4n(c(=O)c3c2)CCCCC4)c1 | inactive: 9.69% |  |
| COc1ccc(C2C(=O)N(C3CCCCCC3)CC(=O)N2CCC2=CCCCC2)cc1 (stereo unspecified) |  | inactive |

| SMILES | activity change, negative = inhibition | outcome |
| --- | --- | --- |
| CS(=O)(=O)N1CCCc2cc(C(=O)Nc3cccc(C(F)(F)F)c3)ccc21 | inactive: -25.1% |  |
| COc1ccc(CCNC(=O)c2ccc3c(Cl)c4c(nc3c2)CCCC4)c(OC)c1 | inactive: 3.38% |  |
| COC(=O)c1cnc(N2CCN(c3ccc(F)cc3)CC2)c2ccccc12 | inactive: -1.57% |  |
| Cc1cccc(OCC(=O)N(Cc2ccccc2)c2ccccn2)c1 | inactive: -27.5% |  |
| COC(=O)c1ccc(CSc2nc3c(c(=O)[nH]2)CCC3)cc1 | inactive: -2.35% |  |
| COc1cc(-c2nc(-c3cccc(Cl)c3)c(-c3ccccc3)[nH]2)cc(OC)c1OC | inactive: -20.6% |  |
| CC1CCC(NC(=O)c2ccc(CS(=O)(=O)c3c(Cl)cccc3Cl)o2)CC1 (stereo unspecified) | inactive: 3.45% |  |
| Cc1ccc2nc(N3CCN(c4cccc(C)c4C)CC3)c3nncn3c2c1 |  | inactive |
| Cc1ccc(C)c(N2CCN(S(=O)(=O)c3cnc(N)nc3)CC2)c1 |  | inactive |
| Cc1ccc(NC(=O)Cn2c(=O)n(Cc3ccc4c(c3)OCO4)c(=O)c3ccccc32)c(C)c1 | inactive: 5.23% |  |
| CCc1ccccc1NC(=O)Cn1c(=O)n(Cc2ccco2)c(=O)c2sc3ccccc3c21 | inactive: -6.46% |  |
| O=C(NCCS(=O)(=O)N1CCN(c2ccc(F)cc2)CC1)C1CC(=O)N(c2ccc(F)cc2)C1 (stereo unspecified) | inactive: 2.46% |  |
| COc1ccc(CCNC(=O)CCSCc2ccccc2Cl)cc1OC | inactive: -1.18% |  |
| CC(C)c1ccc2oc(-c3ccc(NC(=O)c4cc5ccccc5o4)cc3)nc2c1 |  | inactive |
| COc1cccc(-c2cc(C(=O)Nc3ccn(Cc4ccc(C)cc4)n3)no2)c1 |  | inactive |
| CCCCc1ccc(NC(=O)CSc2nc3ccccc3nc2N2CCOCC2)cc1 | inactive: 4.7% |  |
| O=C(Nc1cc(Cl)cc(Cl)c1)c1ccc(F)c(S(=O)(=O)NC2CCCCC2)c1 | inactive: -8.08% |  |
| CC(C)CCn1c(=O)c2sccc2n2c(CCCC(=O)NC3CCC(C)CC3)nnc12 (stereo unspecified) |  | inactive |
| CCOC(=O)c1ccc2c(c1)N(Cc1ccccc1)C(=O)c1ccccc1S2 |  | inactive |
| COc1ccc2nc(NC(=O)c3nc(SCc4ccccc4F)ncc3Cl)sc2c1 | inactive: 2.51% |  |
| Cc1cc(C)n(-c2nc3cc(Cl)ccc3nc2Nc2ccc(CC(=O)O)cc2)n1 | inactive: 2.6% |  |
| CCNC(=O)C1CCN(c2nnc(C)c3c(C)n(-c4ccc(OC)cc4)nc23)CC1 | inactive: -2.28% |  |
| Cc1cccc(NC(c2ccccc2C)c2ccc3ccc(C)nc3c2O)n1 (stereo unspecified) | inactive: 13.2% |  |
| COC(=O)c1c(-c2cccs2)csc1NC(=O)c1ccc(OC)c(OC)c1 | inactive: -3.84% |  |

| SMILES | activity change, negative = inhibition | outcome |
| --- | --- | --- |
| CCCCn1c(NCc2cc(Br)ccc2O)nc2ccccc21 |  | inactive |
| COc1ccccc1CNC(=O)C1CCN(S(=O)(=O)c2ccc3c(ccn3C)c2)CC1 |  | inactive |
| COc1ccc(CNC(=O)Cn2nc(N3CCN(c4ccccc4)CC3)ccc2=O)c(OC)c1 |  | inactive |
| COc1ccc(S(=O)(=O)c2c(SC)nn(CC(=O)Nc3cccc(C)c3C)c2N)cc1 | inactive: 0.319% |  |
| Cc1ccc(-c2nc(CS(=O)(=O)CC(=O)NCCc3ccccc3)c(C)o2)cc1 | inactive: -1.94% |  |
| Cc1ccc2c(c1)NC(=O)c1cccnc1O2 | inactive: -4.93% |  |
| CCc1ccc(CN(Cc2ccco2)C(=O)COc2ccc(Cl)c(C)c2)cc1 |  | inactive |
| CCn1cc(C(=O)NCc2ccc(C)cc2)c(=O)c2cc(S(=O)(=O)N(C)C3CCCCC3)ccc21 | inactive: -4.61% |  |
| CCN(CC)c1nc2c(S(=O)(=O)c3cccc(Cl)c3)nnn2c2ccsc12 |  | inactive |
| CCC(C)NC(=O)CSc1nc2c(sc3ccccc32)c(=O)n1CCc1ccc(OC)c(OC)c1 (stereo unspecified) | inactive: 7.77% |  |
| O=C(Nc1ccc(OCc2cc(=O)n3ccccc3n2)cc1)c1ccccc1Cl | inactive: -11.5% |  |
| CCC(C)Nc1oc(-c2ccc(COc3ccc(Cl)cc3)o2)nc1C#N (stereo unspecified) | inactive: 0.735% |  |
| CC1=C(C(=O)Nc2ccccc2)C(c2ccncc2)n2nc(SCc3ccccc3F)nc2N1 (stereo unspecified) |  | inactive |
| COc1nc(-c2ccccc2)ccc1-c1noc(-c2ccccc2Br)n1 | inactive: -4.52% |  |
| COc1cccc(OCc2cc(=O)n3c(-c4ccccc4)csc3n2)c1 | inactive: 19.7% |  |
| CCN1CCN(C(=O)Cn2c(-c3cccs3)cc3ccccc32)CC1 | inactive: 2.36% |  |
| COc1ccc(N2CCN(S(=O)(=O)CCNC(=O)COc3ccccc3F)CC2)cc1 | inactive: -6.29% |  |
| CCN(CC)S(=O)(=O)c1ccc(C(=O)NCCSc2c(-c3ccc(C)cc3)[nH]c3ccccc23)cc1 | inactive: -8.12% |  |
| CCOc1ccccc1CNC(=O)CCc1c(C)nn(-c2ccc(N3CCOCC3)nn2)c1C |  | inactive |
| O=C(CN1C(=O)COc2ccc(S(=O)(=O)N3CCCC3)cc21)N1CCN(c2cccc(C(F)(F)F)c2)CC1 | inactive: -22.7% |  |
| COc1ccc(CCNC(=O)c2ccc3c(c2)N(Cc2ccccc2F)C(=O)c2ccccc2S3=O)cc1OC (stereo unspecified) | inactive: -2.83% |  |
| Cc1ccc(Cc2nc3ccccc3nc2SCC(=O)N2CCCc3ccccc32)cc1 | inactive: -11.8% |  |
| Cc1ccccc1N1C(=O)c2cc(S(N)(=O)=O)c(Cl)cc2NC1C (stereo unspecified) | inactive: 0.746% |  |
| Cc1ccccc1C(=O)NCCc1csc(-c2ccc(C(F)(F)F)cc2)n1 |  | inactive |
